From the supplement of paper PMC8728848
The other results are listed elsewhere or left out.

Legend:
Assay in all cases: glycan array binding signal (z-score within array); higher = stronger binding
Details in all cases: glycan notation: IUPAC condensed, linker removed
[1] = target: Neu5Ac(a2-6)Gal(b1-4)GlcNAc(b1-2)Man(a1-3)[Man(a1-6)]Man(b1-4)GlcNAc(b1-4)GlcNAc
Method in brief: (§1)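 The binding signal is a Z-score computed within each array and averaged over linkers. Arrays of the same protein sequence at different concentrations or buffers were also averaged together. Data originate from 3228 arrays in the Consortium for Functional Glycomics database, kept only where the protein sequence was available.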

[2] = target: Neu5Ac(a2-6)Gal(b1-4)GlcNAc(b1-2)Man(a1-3)[Neu5Ac(a2-3)Gal(b1-4)GlcNAc(b1-2)Man(a1-6)]Man(b1-4)GlcNAc(b1-4)GlcNAc
Method in brief: as §1

[3] = target: Neu5Ac(a2-6)Gal(b1-4)GlcNAc(b1-2)Man(a1-3)[Neu5Ac(a2-6)Gal(b1-4)GlcNAc(b1-2)Man(a1-6)]Man(b1-4)GlcNAc(b1-4)GlcNAc
Method in brief: as §1

[4] = target: Neu5Ac(a2-6)Gal(b1-4)GlcNAc(b1-2)Man(a1-3)[Neu5Ac(a2-6)Gal(b1-4)GlcNAc(b1-2)Man(a1-6)]Man(b1-4)GlcNAc(b1-4)[Fuc(a1-6)]GlcNAc
Method in brief: as §1

[5] = target: Neu5Ac(a2-6)Gal(b1-4)GlcNAc(b1-2)Man(a1-6)Man(b1-4)GlcNAc(b1-4)GlcNAc
Method in brief: as §1

[6] = target: Neu5Ac(a2-6)Gal(b1-4)GlcNAc(b1-2)Man(a1-6)[Gal(b1-4)GlcNAc(b1-2)Man(a1-3)]Man(b1-4)GlcNAc(b1-4)GlcNAc
Method in brief: as §1

[7] = target: Neu5Ac(a2-6)Gal(b1-4)GlcNAc(b1-2)Man(a1-6)[GlcNAc(b1-2)Man(a1-3)]Man(b1-4)GlcNAc(b1-4)GlcNAc
Method in brief: as §1

[8] = target: Neu5Ac(a2-6)Gal(b1-4)GlcNAc(b1-2)Man(a1-6)[Man(a1-3)]Man(b1-4)GlcNAc(b1-4)GlcNAc
Method in brief: as §1

[9] = target: Neu5Ac(a2-6)Gal(b1-4)GlcNAc(b1-2)[Neu5Ac(a2-6)Gal(b1-4)GlcNAc(b1-4)]Man(a1-3)[GlcNAc(b1-4)][Neu5Ac(a2-6)Gal(b1-4)GlcNAc(b1-2)[Neu5Ac(a2-6)Gal(b1-4)GlcNAc(b1-6)]Man(a1-6)]Man(b1-4)GlcNAc(b1-4)GlcNAc
Method in brief: as §1

[10] = target: Neu5Ac(a2-6)Gal(b1-4)GlcNAc(b1-2)[Neu5Ac(a2-6)Gal(b1-4)GlcNAc(b1-4)]Man(a1-3)[GlcNAc(b1-4)][Neu5Ac(a2-6)Gal(b1-4)GlcNAc(b1-4)Man(a1-6)]Man(b1-4)GlcNAc(b1-4)GlcNAc
Method in brief: as §1

[11] = target: Neu5Ac(a2-6)Gal(b1-4)GlcNAc(b1-2)[Neu5Ac(a2-6)Gal(b1-4)GlcNAc(b1-6)]Man(a1-6)[Neu5Ac(a2-6)Gal(b1-4)GlcNAc(b1-2)Man(a1-3)][GlcNAc(b1-4)]Man(b1-4)GlcNAc(b1-4)GlcNAc
Method in brief: as §1

[12] = target: Neu5Ac(a2-6)Gal(b1-4)GlcNAc(b1-3)Gal(b1-3)GlcNAc
Method in brief: as §1

[13] = target: Neu5Ac(a2-6)Gal(b1-4)GlcNAc(b1-3)Gal(b1-4)GlcNAc
Method in brief: as §1

[14] = target: Neu5Ac(a2-6)Gal(b1-4)GlcNAc(b1-3)Gal(b1-4)GlcNAc(b1-2)Man(a1-3)[Neu5Ac(a2-6)Gal(b1-4)GlcNAc(b1-3)Gal(b1-4)GlcNAc(b1-2)Man(a1-6)]GalNAc
Method in brief: as §1

[15] = target: Neu5Ac(a2-6)Gal(b1-4)GlcNAc(b1-3)Gal(b1-4)GlcNAc(b1-3)Gal(b1-4)GlcNAc
Method in brief: as §1

[16] = target: Neu5Ac(a2-6)Gal(b1-4)GlcNAc(b1-3)Gal(b1-4)GlcNAc(b1-3)Gal(b1-4)GlcNAc(b1-2)Man(a1-3)[Neu5Ac(a2-6)Gal(b1-4)GlcNAc(b1-3)Gal(b1-4)GlcNAc(b1-3)Gal(b1-4)GlcNAc(b1-2)Man(a1-6)]GalNAc
Method in brief: as §1

[17] = target: Neu5Ac(a2-6)Gal(b1-4)GlcNAc(b1-3)Gal(b1-4)GlcNAc(b1-3)GalNAc
Method in brief: as §1

[18] = target: Neu5Ac(a2-6)Gal(b1-4)GlcNAc(b1-3)Gal(b1-4)GlcNAc(b1-3)[Neu5Ac(a2-6)Gal(b1-4)GlcNAc(b1-3)Gal(b1-4)GlcNAc(b1-6)]GalNAc
Method in brief: as §1

[19] = target: Neu5Ac(a2-6)Gal(b1-4)GlcNAc(b1-3)Gal(b1-4)GlcNAc(b1-6)[Gal(b1-3)]GalNAc
Method in brief: as §1

[20] = target: Neu5Ac(a2-6)Gal(b1-4)GlcNAc(b1-3)Gal(b1-4)[Fuc(a1-3)]GlcNAc(b1-3)Gal(b1-4)[Fuc(a1-3)]GlcNAc
Method in brief: as §1

[21] = target: Neu5Ac(a2-6)Gal(b1-4)GlcNAc(b1-3)GalNAc
Method in brief: as §1

[22] = target: Neu5Ac(a2-6)Gal(b1-4)GlcNAc(b1-3)[Neu5Ac(a2-6)Gal(b1-4)GlcNAc(b1-6)]GalNAc
Method in brief: as §1

[23] = target: Neu5Ac(a2-6)Gal(b1-4)GlcNAc(b1-6)GalNAc
Method in brief: as §1

[24] = target: Neu5Ac(a2-6)Gal(b1-4)GlcNAc(b1-6)[Gal(b1-3)GlcNAc(b1-3)]Gal(b1-4)Glc
Method in brief: as §1

[25] = target: Neu5Ac(a2-6)Gal(b1-4)GlcNAc(b1-6)[Gal(b1-3)]GalNAc
Method in brief: as §1

[26] = target: Neu5Ac(a2-6)Gal(b1-4)GlcNAc6S
Method in brief: as §1

[27] = target: Neu5Ac(a2-6)GalNAc
Method in brief: as §1

[28] = target: Neu5Ac(a2-6)GalNAc(b1-4)GlcNAc
Method in brief: as §1

[29] = target: Neu5Ac(a2-6)GalNAc(b1-4)GlcNAc6S
Method in brief: as §1

[30] = target: Neu5Ac(a2-6)GlcNAc(b1-4)GlcNAc
Method in brief: as §1

[31] = target: Neu5Ac(a2-6)GlcNAc(b1-4)GlcNAc(b1-4)GlcNAc
Method in brief: as §1

B1: FGFR2-Fc (protein)
chain: MVNVTDAISSGDDEDDTDGAEDFVSENSNNKRAPYWTNTEKMEKRLHAVPAANTVKFRCPAGGNPMPTMRWLKNGKEFKQEHRIGGYKVRNQHWSLIMESVVPSDKGNYTCVVENEYGSINHTYHLDVVERSPHRPILQAGLPANASTVVGGDVEFVCKVYSDAQPHIQWIKHVEKNGSKYGPDGLPYLKVLKHSGINSSNAEVLALFNVTEADAGEYICKVSNYIGQANQSAWLTVLPKQQAPGREKEITASPDYLETRPLEQKLISEEDLAANDILDYKDDDDKV
- glycan array binding signal (z-score) [1]: -0.055
- glycan array binding signal (z-score) [2]: -0.161
- glycan array binding signal (z-score) [3]: 0.39
- glycan array binding signal (z-score) [4]: 0.517
- glycan array binding signal (z-score) [5]: 0.242
- glycan array binding signal (z-score) [6]: 0.258
- glycan array binding signal (z-score) [7]: -0.077
- glycan array binding signal (z-score) [8]: -0.126
- glycan array binding signal (z-score) [9]: 0.096
- glycan array binding signal (z-score) [10]: -0.026
- glycan array binding signal (z-score) [11]: -0.439
- glycan array binding signal (z-score) [12]: -0.108
- glycan array binding signal (z-score) [13]: -0.58
- glycan array binding signal (z-score) [14]: -0.158
- glycan array binding signal (z-score) [15]: -0.107
- glycan array binding signal (z-score) [16]: 1.17
- glycan array binding signal (z-score) [17]: -0.769
- glycan array binding signal (z-score) [18]: 0.238
- glycan array binding signal (z-score) [19]: 0.737
- glycan array binding signal (z-score) [20]: 0.114
- glycan array binding signal (z-score) [21]: -0.061
- glycan array binding signal (z-score) [22]: 0.42
- glycan array binding signal (z-score) [23]: -0.19
- glycan array binding signal (z-score) [24]: 0.027
- glycan array binding signal (z-score) [25]: -0.282
- glycan array binding signal (z-score) [26]: -0.724
- glycan array binding signal (z-score) [27]: 0.386
- glycan array binding signal (z-score) [28]: -0.576
- glycan array binding signal (z-score) [29]: 0.196
- glycan array binding signal (z-score) [30]: 0.304
- glycan array binding signal (z-score) [31]: -0.641
